Data: the supplement of paper PMC12217912
The other results are listed elsewhere or left out. The full chains were built here from the parent and the listed change. Inactive controls read about 0.05.

B1: TEV protease; numbered along this chain (parent)
chain: MGESLFKGPRDYNPISSSICHLTNESDGHTTSLYGIGFGPFIITNKHLFRRNNGTLVVQSLHGVFKVKDTTTLQQHLVDGRDMIIIRMPKDFPPFPQKLKFREPQREERICLVTTNFQTKSMSSMVSDTSCTFPSGDGIFWKHWIQTKDGQCGSPLVSTRDGFIVGIHSASNFTNTNNYFTSVPKNFMELLTNQEAQQWVSGWRLNADSVLWGGHKVFMVKPEEPFQPVKEATQL

Variants of: B1
Assay: raw area under fraction-flipped curve 0-4 h after induction (AUC4h, not background-subtracted), DNA-recorder readout of cleavage of the substrate (dimensionless); higher = more cleavage of the substrate by the protease variant
Details: temperature: 34 °C; time window: 0-4 h after rhamnose induction
Experimental: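 In vivo DNA recorder in E. coli TOP10(DE3) ΔrhaA at 34 °C. Each TEVp single-site mutant (parent TEVp 0) is paired with a single-site variant of the 7-mer TEVs (canonical ENLYFQ|S). The substrate sits between flexible linkers in a Bxb1-sfGFP-TEVs-SsrA fusion, so cleavage stabilises Bxb1 and speeds flipping of a recombination array, read by NGS. The value is the raw area under the fraction-flipped curve over 0-4 h after rhamnose induction (AUC4h), with ≥20 reads per time point. It is not background-subtracted; inactive controls average about 0.047.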
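Also: Bxb1 expression induced with 0.2% (w/v) L-rhamnose at OD600 near 0.5, cultures sampled hourly, flipped fraction per protease–substrate barcode pair counted by paired-end Illumina sequencing.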

S169M
area with substrate ENLYFAS: 0.0604
area with substrate ENLYFCS: 0.0714
area with substrate ENLYFES: 0.0669
area with substrate ENLYFFS: 0.074
area with substrate ENLYFIS: 0.0573
area with substrate ENLYFMS: 0.0532
area with substrate ENLYFNS: 0.0611
area with substrate ENLYFPS: 0.0583
area with substrate ENLYFRS: 0.04
area with substrate ENLYFSS: 0.0539
area with substrate ENLYFTS: 0.063
area with substrate ENLYFVS: 0.0646
area with substrate ENLYFYS: 0.0554

S169W
area with substrate ENLYFAS: 0.0656
area with substrate ENLYFCS: 0.0622
area with substrate ENLYFES: 0.0642
area with substrate ENLYFHS: 0.0469
area with substrate ENLYFIS: 0.0524
area with substrate ENLYFKS: 0.0646
area with substrate ENLYFPS: 0.065
area with substrate ENLYFVS: 0.0849
area with substrate ENLYFYS: 0.0565

S171L
area with substrate ENLYFAS: 0.0583
area with substrate ENLYFCS: 0.0152
area with substrate ENLYFDS: 0.0788
area with substrate ENLYFES: 0.0663
area with substrate ENLYFFS: 0.0722
area with substrate ENLYFIS: 0.0472
area with substrate ENLYFKS: 0.064
area with substrate ENLYFMS: 0.0658
area with substrate ENLYFNS: 0.0689
area with substrate ENLYFPS: 0.054
area with substrate ENLYFRS: 0.0555
area with substrate ENLYFSS: 0.0607
area with substrate ENLYFTS: 0.0587

N177L
area with substrate ENLYFAS: 0.0604
area with substrate ENLYFCS: 0.0545
area with substrate ENLYFDS: 0.0584
area with substrate ENLYFES: 0.0776
area with substrate ENLYFFS: 0.0757
area with substrate ENLYFIS: 0.0551
area with substrate ENLYFMS: 0.0613
area with substrate ENLYFNS: 0.0922
area with substrate ENLYFPS: 0.0436
area with substrate ENLYFRS: 0.0515
area with substrate ENLYFSS: 0.0556

N177S
area with substrate ENLYFAS: 0.054
area with substrate ENLYFCS: 0.0303
area with substrate ENLYFDS: 0.0516
area with substrate ENLYFES: 0.0515
area with substrate ENLYFFS: 0.0641
area with substrate ENLYFGS: 0.0211
area with substrate ENLYFHS: 0.051
area with substrate ENLYFIS: 0.0454
area with substrate ENLYFKS: 0.047
area with substrate ENLYFLS: 0.0505
area with substrate ENLYFMS: 0.053
area with substrate ENLYFNS: 0.0468
area with substrate ENLYFPS: 0.044
area with substrate ENLYFRS: 0.0406
area with substrate ENLYFTS: 0.048
area with substrate ENLYFVS: 0.0398
area with substrate ENLYFWS: 0.0413
area with substrate ENLYFYS: 0.0434

F180N
area with substrate ENLYFAS: 0.0427
area with substrate ENLYFCS: 0.0616
area with substrate ENLYFDS: 0.0511
area with substrate ENLYFFS: 0.0588
area with substrate ENLYFHS: 0.0489
area with substrate ENLYFIS: 0.0487
area with substrate ENLYFKS: 0.0536
area with substrate ENLYFNS: 0.0528
area with substrate ENLYFPS: 0.0464
area with substrate ENLYFSS: 0.0411
area with substrate ENLYFTS: 0.0592
area with substrate ENLYFWS: 0.0458

V183H
area with substrate ENLYFAS: 0.037
area with substrate ENLYFCS: 0.0591
area with substrate ENLYFDS: 0.049
area with substrate ENLYFES: 0.0536
area with substrate ENLYFFS: 0.0578
area with substrate ENLYFGS: 0.0503
area with substrate ENLYFHS: 0.0591
area with substrate ENLYFIS: 0.0544
area with substrate ENLYFKS: 0.0635
area with substrate ENLYFLS: 0.0589
area with substrate ENLYFMS: 0.0509
area with substrate ENLYFNS: 0.0551
area with substrate ENLYFPS: 0.0505
area with substrate ENLYFRS: 0.0468
area with substrate ENLYFSS: 0.0191
area with substrate ENLYFTS: 0.0439
area with substrate ENLYFVS: 0.0556
area with substrate ENLYFWS: 0.0457
area with substrate ENLYFYS: 0.0535

L190M
area with substrate ENLYFAS: 0.0542
area with substrate ENLYFCS: 0.06
area with substrate ENLYFDS: 0.0563
area with substrate ENLYFES: 0.11
area with substrate ENLYFFS: 0.0665
area with substrate ENLYFGS: 0.0579
area with substrate ENLYFHS: 0.0499
area with substrate ENLYFIS: 0.0544
area with substrate ENLYFLS: 0.0664
area with substrate ENLYFMS: 0.0556
area with substrate ENLYFNS: 0.052
area with substrate ENLYFRS: 0.0523
area with substrate ENLYFSS: 0.0639
area with substrate ENLYFTS: 0.0628
area with substrate ENLYFWS: 0.0729

L190Y
area with substrate ENLYFAS: 0.0631
area with substrate ENLYFCS: 0.0762
area with substrate ENLYFFS: 0.069
area with substrate ENLYFGS: 0.0658
area with substrate ENLYFHS: 0.0596
area with substrate ENLYFIS: 0.0574
area with substrate ENLYFLS: 0.0457
area with substrate ENLYFMS: 0.0552
area with substrate ENLYFPS: 0.0651
area with substrate ENLYFRS: 0.0499
area with substrate ENLYFTS: 0.0592
area with substrate ENLYFWS: 0.0493

L191A
area with substrate ENLYFAS: 0.0406
area with substrate ENLYFCS: 0.0497
area with substrate ENLYFES: 0.0525
area with substrate ENLYFFS: 0.067
area with substrate ENLYFIS: 0.0579
area with substrate ENLYFKS: 0.0343
area with substrate ENLYFMS: 0.0565
area with substrate ENLYFPS: 0.0376
area with substrate ENLYFRS: 0.0539
area with substrate ENLYFTS: 0.0625

L191F
area with substrate ENLYFAS: 0.0594
area with substrate ENLYFCS: 0.0589
area with substrate ENLYFDS: 0.0598
area with substrate ENLYFES: 0.0701
area with substrate ENLYFFS: 0.0657
area with substrate ENLYFIS: 0.0515
area with substrate ENLYFKS: 0.0699
area with substrate ENLYFLS: 0.0378
area with substrate ENLYFMS: 0.0684
area with substrate ENLYFNS: 0.0645
area with substrate ENLYFPS: 0.0413
area with substrate ENLYFRS: 0.0557
area with substrate ENLYFSS: 0.0574
area with substrate ENLYFTS: 0.0589
area with substrate ENLYFVS: 0.0869
area with substrate ENLYFWS: 0.0409
area with substrate ENLYFYS: 0.0612

L191K
area with substrate ENLYFAS: 0.055
area with substrate ENLYFCS: 0.0488
area with substrate ENLYFDS: 0.0482
area with substrate ENLYFES: 0.044
area with substrate ENLYFFS: 0.0639
area with substrate ENLYFGS: 0.0634
area with substrate ENLYFHS: 0.0601
area with substrate ENLYFIS: 0.0545
area with substrate ENLYFKS: 0.0637
area with substrate ENLYFLS: 0.0586
area with substrate ENLYFMS: 0.0647
area with substrate ENLYFNS: 0.039
area with substrate ENLYFPS: 0.0448
area with substrate ENLYFRS: 0.0541
area with substrate ENLYFTS: 0.0542
area with substrate ENLYFWS: 0.0482
area with substrate ENLYFYS: 0.0461

L191Y
area with substrate ENLYFAS: 0.0541
area with substrate ENLYFES: 0.0605
area with substrate ENLYFFS: 0.046
area with substrate ENLYFGS: 0.0624
area with substrate ENLYFHS: 0.0464
area with substrate ENLYFIS: 0.0515
area with substrate ENLYFMS: 0.0567
area with substrate ENLYFPS: 0.0612
area with substrate ENLYFTS: 0.0501
area with substrate ENLYFVS: 0.0441
area with substrate ENLYFWS: 0.079
area with substrate ENLYFYS: 0.027
